Data reported in PubChem BioAssay AID1768 (National Center for Advancing Translational Sciences (NCATS), 2009).
In all, about 270,000 compounds went through this assay and about 620 (0.23%) were called active. Inconclusive means that the source gave no clear call. Such entries were picked first, then a sample of the others. The call rests on the fitted dose curve; in most records, active means well fitted inhibition curve with a large enough effect in the polarisation, with a control signal flat (not every such curve was filed as active); inconclusive means small, poorly fitted or top-dose-only effect, or effect the other way, or a change in a side signal; inactive means no such curve, though single readings can be large or run the other way; the % refers to the polarisation. Potencies of inconclusive entries are doubtful fits and often do not repeat. “Side channel” marks fits to a control or component signal instead of the main read-out.

What follows are compounds tested against Menin (Homo sapiens) (UniProt O00255) (assay: qHTS Assay for Inhibitors Targeting the Menin-MLL Interaction in MLL Related Leukemias: Competition With Texas Red Labeled MLL-derived Mutant Peptide). Conditions: fluorescence polarization; FP activity change, negative = inhibition: at 61.6 µM (top of the series).
UniProt O00255, sequence (O00255 whole entry, looked up): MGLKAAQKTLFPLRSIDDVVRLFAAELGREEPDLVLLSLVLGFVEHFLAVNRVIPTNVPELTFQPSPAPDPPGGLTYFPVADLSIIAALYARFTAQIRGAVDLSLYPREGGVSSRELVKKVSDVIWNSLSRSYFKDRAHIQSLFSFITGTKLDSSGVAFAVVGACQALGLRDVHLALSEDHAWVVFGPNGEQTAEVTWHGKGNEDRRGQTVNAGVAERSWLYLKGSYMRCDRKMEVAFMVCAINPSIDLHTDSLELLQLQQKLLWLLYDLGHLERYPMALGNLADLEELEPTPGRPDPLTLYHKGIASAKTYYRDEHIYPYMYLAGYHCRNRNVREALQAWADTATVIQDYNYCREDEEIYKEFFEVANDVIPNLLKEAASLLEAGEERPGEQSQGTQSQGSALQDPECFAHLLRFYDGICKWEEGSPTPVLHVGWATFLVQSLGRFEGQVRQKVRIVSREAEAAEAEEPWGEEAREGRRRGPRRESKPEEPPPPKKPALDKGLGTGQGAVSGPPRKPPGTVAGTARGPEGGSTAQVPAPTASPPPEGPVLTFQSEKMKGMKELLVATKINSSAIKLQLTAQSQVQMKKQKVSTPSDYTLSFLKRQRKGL
Potency means the concentration at half of the fitted maximal effect; tags describe the fitted curve by direction and shape or compound fluorescence and quenching.
Wherever FP activity change, negative = inhibition is given: % of control where 0% means no effect.

Potency, inconclusive:
CSc1ccc(C2C(C#N)=C(N)Oc3c2ccc(=O)c2c(C)oc(C)c32)cc1 (stereo not given) 39.8 µM [fluorescent, side channel, single point]
CC(C)CN1C(=O)c2ccc(C(=O)Nc3ccccc3C(=O)O)cc2C1=O 5.62 µM [quencher, side channel, partial curve]
CCOCCCNC(=S)N1CCN(c2nc(-c3ccccc3)cs2)CC1 8.91 µM [quencher, side channel, full curve, poor fit]
Cc1ccc(C(=O)Nc2oc(-c3ccccc3)cc2C#N)cc1 39.8 µM [inhibitor, single point]
NC(=O)CSc1nc2ccccc2n1-c1ccccc1 39.8 µM [inhibitor, single point]
CNc1sc(C(=O)c2cccs2)c(N)c1-c1nc2ccccc2s1 28.2 µM [quencher, partial curve]
CCN1C=C(Cc2ccccc2C)C2=C(C1)C(c1ccccc1C)C(C#N)=C(N)O2 (stereo not given) 17.8 µM [fluorescent, side channel, partial curve]
CCCCCN(C(=O)NC(=O)Nc1ccc(C)cc1C)S(C)(=O)=O 39.8 µM [inhibitor, single point]
CC(=O)c1sc(N/N=C\c2ccc(Br)cc2)nc1C 25.1 µM [quencher, side channel, partial curve]
COC(=O)[C@@H]1[C@@H](C#N)C2(c3ccccc3-c3ccccc32)N(c2ccc(Cl)cc2)N1C#N 22.4 µM [inhibitor, single point]
COc1ccc(N/N=C(/Oc2ccc([N+](=O)[O-])cc2)C(C)=O)cc1 28.2 µM [quencher, side channel, single point]
CCOc1ccc(Cn2nnc(C(=O)Nc3cc(C)cc(C)c3)c2N)cc1 39.8 µM [inhibitor, single point]
Oc1cccc(Nc2ncnc3c2oc2ccccc23)c1 35.5 µM [inhibitor, single point]
CC(C)(C)OC(=O)NNC(=O)NC12CC3CC(CC(C3)C1)C2 1.26 µM [fluorescent, side channel, full curve, poor fit]
CCc1nc2ccccc2c2nc3ccccc3n12 39.8 µM [quencher, side channel, single point]
CCc1nnc(NS(=O)(=O)c2ccc(NC(=O)/C=C/c3ccc(OC)cc3OC)cc2)s1 22.4 µM [quencher, side channel, partial curve, poor fit]
COc1ccc(S(=O)(=O)Nc2ccc(N3CCOCC3)cc2)cc1[N+](=O)[O-] 35.5 µM [quencher, side channel, partial curve]
CC(C)(C)[C@H]1C=C(C(=O)N2CCN(Cc3ccccc3)CC2)O[C@@H](OCCCCO)C1 8.91 µM [fluorescent, side channel, partial curve]
O=C(NCCS(=O)(=O)N1CCN(c2ccccc2F)CC1)C1CC(=O)N(c2ccc(F)cc2)C1 (stereo not given) 28.2 µM [fluorescent, side channel, single point]
COCCNC(=S)N1CCN(c2nc(-c3ccc(Cl)cc3)cs2)CC1 35.5 µM [inhibitor, single point]
Cc1ccc(C(=O)N/C(=C\c2ccc(-c3ccc(Cl)cc3)o2)C(=O)NCCCN(C)C)cc1 20 µM [fluorescent, side channel, partial curve]
O=C(Cc1ccccc1)N/N=C/c1ccc2c(c1)OCO2 39.8 µM [fluorescent, side channel, single point]
CCc1nnc(NS(=O)(=O)c2ccc(NC(=O)c3cccc(Cl)c3)cc2)s1 17.8 µM [quencher, side channel, partial curve]
Cc1nc2c(oc3ccccc32)c(=O)o1 14.1 µM [quencher, side channel, partial curve]
COc1ccc(N(CC(=O)NCCC2=CCCCC2)S(=O)(=O)c2ccc(C)cc2)cc1 3.55 µM [fluorescent, side channel, partial curve]
N#CCn1cnc2sc(-c3ccccc3)cc2c1=O 12.6 µM [quencher, side channel, partial curve]
Cc1ccc(NC(=O)CC(=O)Nc2ccc(C)cc2C)c(C)c1 39.8 µM [inhibitor, partial curve]
CCN(C(=O)CC(C)C)c1nnc(Cn2nnc3ccccc32)s1 12.6 µM [inhibitor, partial curve]
CC(NC(=O)Nc1cccc([N+](=O)[O-])c1)c1ccc2c(c1)OCO2 (stereo not given) 25.1 µM [quencher, side channel, single point]
CCC(C)C(=O)Nc1nc(C)c(-c2csc(Nc3cc(Cl)ccc3OC)n2)s1 (stereo not given) 10 µM [quencher, side channel, partial curve]
C=CCOc1ccc(C(c2c(C(=O)O)[nH]c3ccccc23)c2c(C(=O)O)[nH]c3ccccc23)cc1 15.8 µM [quencher, side channel, partial curve]
CC(=O)Nc1cccc(Nc2nc(-c3cccs3)nc3ccccc23)c1 2.82 µM [quencher, side channel, partial curve]
CN(C(=O)c1ccc(Oc2ccc([N+](=O)[O-])cc2)cc1)C1CCCCC1 4.47 µM [fluorescent, side channel, partial curve]
O=[N+]([O-])c1cccc(NN=Nc2ccccc2)c1 31.6 µM [quencher, side channel, single point]
CN1CCN(Cc2ccc(-c3ccc(Cl)cc3)o2)CC1 25.1 µM [inhibitor, single point]
COc1cc(/C=C2\S/C(=N/S(=O)(=O)c3ccc(C)cc3)NC2=O)c([N+](=O)[O-])cc1OC 20 µM [quencher, side channel, partial curve]
CCOc1ccc(/C(C)=N\NC(=O)Cc2ccccc2)cc1 39.8 µM [inhibitor, single point]
CSc1ccccc1NC(=O)Nc1cccc(F)c1 25.1 µM [quencher, side channel, single point]
COc1ccccc1/C=C/CN1CCCC(CO)(CCc2ccccc2)C1 (stereo not given) 35.5 µM [inhibitor, partial curve]
O=C(O)CCC(=O)N1CC=C(c2ccccc2)CC1 0.794 µM [fluorescent, side channel, full curve]
CN(C)c1ccc(/C=C/c2nc3ccccc3c(=O)n2-c2ccc(C(=O)O)cc2)cc1 15.8 µM [quencher, side channel, partial curve]
O=C(CNc1cccc(Cl)c1)NNC(=S)NCc1ccccc1 39.8 µM [quencher, side channel, single point]
CN(Cc1ccccc1)S(=O)(=O)c1ccccc1[N+](=O)[O-] 28.2 µM [quencher, side channel, partial curve]
CCc1ccc2[nH]c(=O)c(CN(CCO)C(=O)NCc3ccccc3)cc2c1 25.1 µM [inhibitor, partial curve]
Cc1ccsc1C(=O)Nc1ccc(O)c(-c2nc3ccccc3s2)c1 12.6 µM [quencher, side channel, partial curve]
CCOC(=O)c1c(NC(=O)COc2ccccc2)sc2c1CC(C)(C)NC2(C)C 2.51 µM [fluorescent, side channel, full curve, poor fit]
Cc1ccc(N(C(=O)Cn2nnc(-c3ccccc3)n2)C(C(=O)NC2CCCCC2)c2ccccn2)cc1C (stereo not given) 20 µM [fluorescent, side channel, partial curve, poor fit]
O=C(CSc1nnc(SCc2ccccc2)s1)N/N=C/C=C/c1ccco1 28.2 µM [quencher, side channel, single point]
Oc1c(Cl)cc(Cl)c2cccnc12 28.2 µM [quencher, side channel, partial curve]
O=C(NCc1ccccc1)C(=O)NCC1COc2ccccc2O1 (stereo not given) 39.8 µM [inhibitor, single point]
CC(=O)c1sc(Nc2nc3ccc(F)cc3s2)nc1C 17.8 µM [quencher, partial curve]
O=C(O)c1ccccc1NS(=O)(=O)c1ccc(NNC(=S)Nc2ccc(OC(F)F)cc2)c([N+](=O)[O-])c1 14.1 µM [quencher, side channel, partial curve]

FP activity change, negative = inhibition, inactive:
Cc1noc(NS(=O)(=O)c2ccc(NC(=O)C34CC5CC(C3)CC(n3cnc(Cl)n3)(C5)C4)cc2)c1C -3.57%
COc1ccc(OC)c(/C=C2\SC(N3CCCCC3)=NC2=O)c1 -26.7%
CCOC(=O)N1CCC(N(C(=O)Nc2ccc(Cl)c(Cl)c2)C(C)CC)CC1 (stereo not given) -7.51%
